Laboratory results as given in the supplement of paper PMC5499739.
Whole data set: some 16,000 sequences, median “Z-score” near -0.37, cut for the highest 2% near 3.2. The list shows a part of the results.

The sequences below were run on RBM10 RRM1-ZnF (GST-tagged construct) (assay: RNAcompete 7-mer binding Z-score; higher = stronger binding preference).
Procedure, shortened: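 GST-tagged RBM10 constructs (20 pmol) and a designed pool of 241 399 RNAs up to 41 nt (1.5 nmol) were allowed to bind for 30 min at 4°C in 1 ml Hepes pH 7.8 buffer with glutathione Sepharose beads. After four 2-min washes at 4°C, bound RNA was identified by microarray hybridisation. Enrichment was scored per heptamer motif as a one-sided Z-score across the probes containing it.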

Sequence	RNAcompete 7-mer binding Z-score
GACGAGG	2.45
CCAUCAA	-0.785
GACGAGA	0.644
ACCCAGU	-0.655
GGCUGAU	0.443
UAUGCGU	-0.246
GCCAUUG	-0.578
CUCGGGG	1.35
GUCACUA	-0.243
AGACCGC	-1.03
GAAAUAG	0.794
AAAUGAA	-0.139
ACCCGCG	-0.259
GUGACCA	-0.103
AGUACCG	-0.262
AUUCUCC	-0.681
CCAGAAC	-0.672
GUAGUCA	0.157
GAUUGUG	0.81
ACGACUU	-0.668
CAGUUUC	-0.795
UUUCGGG	0.667
ACACUAU	-0.5
ACGGCAC	0.137
ACUACUU	-0.659

Sequence	RNAcompete 7-mer binding Z-score
CUCAGAC	-0.662
AGCGGUU	1.11
AGCAGGA	2.3
UGGGGCC	0.868
AGACAUC	-0.633
UUACCAA	-0.766
GAAGGAC	2.33
UGAUAGC	0.0138
AUAUAAG	0.147
GGUCUAU	-0.298
UGAAAUG	0.836
GAUGUGC	0.56
CGCCUAU	-0.727
AACACUG	-0.253
GUCUGCU	-0.578
AUCCCUU	-0.772
ACCGCGC	-0.425
GAUUGAA	0.205
CAUCCAU	-0.821
UCAAGAA	-0.5
UGGAGGA	2.87
AUCUAGU	-0.613
UAUACGC	-0.805
CGCUCAC	-0.617
CCGUCAG	-0.607

Sequence	RNAcompete 7-mer binding Z-score
GAUCAAG	0.0203
AGGCGAC	0.189
GCGCUAU	-0.467
UAUUCGG	-0.155
GGAUCUG	0.244
GGACUAC	0.163
GAAUGGC	1.27
GUGGCGU	1.19
CAUAUCC	-0.789
CUCGUCC	-0.639
AUGAAAU	-0.292
GCAAUGA	0.0268
AUCGAAG	0.183
GAUUCGC	-0.5
GGACAGU	0.842
GCGGAUA	2.18
GUGCAGC	0.436
UUCACGC	-0.74
GUAUAUA	-0.0414
CAACCUG	-0.652
AGUAAUU	-0.467
UCGUAGC	-0.48
CAGUACC	-0.633
GCUUAGC	-0.483
GAUGCCC	-0.418

Sequence	RNAcompete 7-mer binding Z-score
CCGAACC	-0.779
GCGGGGG	3.94
GAUUCUU	-0.678
CGCUAAA	-0.711
CAUAAUU	-0.86
UGAGAUU	-0.0155
AACUGAC	-0.526
CACGGGA	1.5
AAACAAU	-0.373
UUCUGAG	-0.461
CGUUACC	-0.6
UAACUUU	-0.889
CAAACCA	-0.659
AAACCAG	-0.324
UUACGAC	-0.668
GUUUAGG	1.32
UGACCAU	-0.691
UCACACA	-0.568
GGCUGAC	0.173
UAUGUUA	-0.383
UCAAUUG	-0.448
CACCGUG	-0.298
CGUACAU	-0.373
CCGUUGG	0.342
UCCACUG	-0.529

Sequence	RNAcompete 7-mer binding Z-score
UUCCUGA	-0.763
ACAUUGG	0.553
CAGCGAU	-0.262
AUUCUUA	-0.72
UCCAGCU	-0.945
ACGAGCU	-0.37
GGACAUA	0.761
UGGGGGC	3.07
UUAGAAC	-0.448
UCACUGA	-0.493
AUUCAUC	-0.766
GCAUAAC	-0.301
AUUCCCA	-0.756
GGGUGCG	2.96
AAAACGU	-0.201
GUCAGAG	0.313
AGUGGGG	4.49
AUCCACA	-0.75
UGGCCUC	-0.496
GGGUUCA	1.17
AAACUCG	-0.737
AUCGGCU	-0.659
UUCGCGG	-0.116
GGCGGAG	2.4
GAACGUA	0.115

Sequence	RNAcompete 7-mer binding Z-score
AGAAAAC	-0.298
UCUUAAA	-0.805
UCUUUGG	-0.327
CUUGUUC	-0.899
AGACCUA	-0.87
UUUUUAU	-0.808
GCCGGAC	-0.327
UUCGUGU	-0.483
AUUCCUC	-0.707
AGAUUUA	-0.305
GGCCUAU	-0.565
AGCCGAA	-0.798
GAGACAU	0.186
ACCGCAU	-0.759
UAAGAUA	-0.168
CUGUGUA	-0.285
CCGUCUU	-1
UUGGCGC	0.0788
UAGAUUU	-0.652
UACGUGC	-0.331
AGCCUUC	-0.698
CUGAGCU	-0.431
UCACUAA	-0.642
GCCUCAU	-0.938
GUCAAGU	-0.00246

Sequence	RNAcompete 7-mer binding Z-score
GUGGUUG	2.75
GGAUUUU	0.043
GCGAACC	-0.366
UAUUUGU	-0.542
AACGCUG	-0.5
GGCGCAA	0.309
AUUUGCG	-0.675
CUGAUCC	-0.763
CGUUGCC	-0.6
UGCAUCG	-0.396
CAACUUA	-0.727
GGCAACA	0.313
CAUGGCA	-0.0707
CAAUAGG	0.703
ACCCGAC	-0.746
CAUGGUG	1.35
GCCUUAC	-0.789
CUGAUAU	-0.61
UGAGUCU	-0.308
GGGUAGU	3.11
CUUCGCG	-0.714
GCUCGCA	-0.379
ACGUCCG	-0.626
GAUGUAG	1.51
UACCUCC	-0.662

Sequence	RNAcompete 7-mer binding Z-score
AUAAGAG	0.254
CAUUGGG	0.8
CCAAUUG	-0.5
ACCAUGA	-0.675
UAUAGUC	-0.503
CUGCGCG	-0.262
AACCCUA	-0.844
GAACCCG	-0.704
CAGGCCU	-0.662
AUUGGGC	1.49
GUCGGGU	1.64
ACGCUAA	-0.578
ACCCAAG	-0.613
GUGCCGG	0.56
CAUGUUG	-0.526
GUUUGCU	-0.347
GUUGACA	0.215
CUUUACU	-0.746
CGAUAGG	1.23
UUGCGUC	-0.584
UUAAGAA	-0.301
UUCAAUU	-0.727
CAGUAAA	-0.366
UGUUGGG	2.52
UGGCAAC	0.176

Sequence	RNAcompete 7-mer binding Z-score
ACUGGUA	0.358
GCGGACA	0.803
AGUUAAA	-0.0804
CUAGUGA	-0.217
GGCCCUA	-0.571
GGUGCUG	2.12
CGUCUUG	-0.691
GCCGUAC	-0.707
GUAUCCG	-0.5
CUCUAUG	-0.769
ACUCCAA	-0.714
CCAUAGA	-0.617
AGUGCCU	-0.591
UAGGCAA	0.553
UUAUGGA	1
CAAAUUC	-0.893
UAAGUCU	-0.633
CGGGGGG	3.06
GGCCUCG	-0.0479
AACGCAC	-0.75
UGGACAU	0.651
UCGUCUU	-0.678
CGUCGUA	-0.243
UAGCCUA	-0.798
AAUACCU	-0.711

Sequence	RNAcompete 7-mer binding Z-score
AUGCGCA	-0.194
UAUAGGU	0.683
CGGCAUA	-0.21
AGUCGCA	-0.321
AGCAUCA	-0.262
GUAAUCA	0.017
CAAACGG	0.527
UGAGGCU	0.3
GACCAAU	-0.639
ACCUUAC	-1
GUCCCGA	-0.522
AUUGUCA	-0.441
UUAUCUU	-0.873
UCAGAUU	-0.636
UAACGCA	-0.5
UUAGUGU	-0.0772
CUGGGGU	2.18
UAGAAGC	-0.0447
CACUUCU	-0.815
CAGCCAA	-0.493
ACCACAC	-0.402
AUGGGAG	3.64
GUCGUUG	0.0918
UCUGUCU	-0.756
GGCCGUC	-0.441

Sequence	RNAcompete 7-mer binding Z-score
UAAAGGU	1.42
AGUGCGG	1.41
AGGGACA	2.02
AACAGGU	1.49
UCCUAAC	-0.86
CCCCCCG	0.0365
AGGUCAA	0.274
UUUGACU	-0.714
GCAGGAG	2.47
CUAGAGG	0.319
UUCCGAC	-0.789
CGGGCUG	0.573
GGCGUAA	0.901
AGUAAAA	-0.184
AGGCUCA	-0.292
GGUUAUA	0.764
GUAUCUC	-0.594
AACAAGG	2.03
CAUCCCA	-0.548
UUGAGAU	-0.223
GUAGGUU	1.61
AGCAACA	-0.158
CAACGAC	-0.457
GGUCAGU	0.566
GCCACCA	-0.363

Sequence	RNAcompete 7-mer binding Z-score
ACAUGUA	-0.123
UCUCGAG	-0.448
CCCUGUU	-0.802
UCACAUC	-0.685
GUCAGCG	0.283
AAACGAA	-0.249
GAUGCAA	0.257
UCAGUUU	-0.672
CCAGGAU	0.404
GGUAGAA	2.63
UCCAACG	-0.477
GUUAAAU	-0.0804
CGAACAA	-0.262
UUGAGGU	1.63
UCGGUGU	0.524
AGGUUAC	0.485
UAUCCAU	-0.659
GCCCUAA	-0.737
UGCUUUU	-0.902
CAGAUGG	1.41
CCAGGGC	0.93
GUCCGGU	0.082
UCACCAC	-0.428
UUCAAUA	-0.522
UAUCUGC	-0.756

Sequence	RNAcompete 7-mer binding Z-score
ACAGUCG	-0.363
ACCCUGG	-0.022
CGGUCGA	0.03
CUCUAGA	-0.629
CCCCACG	0.00729
UCUUCCG	-0.737
GAAGGAA	4.56
UGUCCCU	-0.623
CGCAGUU	-0.344
CGUACUU	-0.802
AAAGACA	0.0138
GAGUGUG	1.86
CCAUGUC	-0.808
AUAAUCA	-0.47
AUUUCCG	-0.782
GCUAGCC	-0.604
UAUAGCU	-0.529
CGGGAUU	1.53
UAAACUA	-0.483
GAUAUAC	-0.249
UUUAUCG	-0.655
AGCAGUC	-0.415
UGAACAC	-0.347
CUUUAAG	-0.763
UUUUAAA	-0.652

Sequence	RNAcompete 7-mer binding Z-score
CUGAGUG	0.293
GUGCUUG	-0.0804
CAUUCGG	-0.36
GCGUAUG	0.186
AUCGGCC	-0.62
UAGACGA	0.241
AAGAUCC	-0.561
GACAUCA	-0.422
CGUAGUG	0.121
UAGGGAG	3.25
GAGGCUC	-0.0967
AGUCCAC	-0.594
UGUUCCU	-0.815
CUCACUG	-0.61
GACGUGG	1.98
UGCUGGU	0.261
GUGAGGC	1.53
UUGCCAU	-0.902
UAACUGA	-0.295
AAGACUU	-0.464
ACAAUGA	-0.353
GUCUAAA	-0.522
CUCGAAA	-0.431
GGUGGCU	1.12
AGAGGUC	-0.123

Sequence	RNAcompete 7-mer binding Z-score
AACAGAG	0.768
CAGUCCC	-0.681
AACCGUU	-0.811
UGGUGGC	1.8
ACGACAA	-0.288
AGAUUAC	-0.516
UAUUUGA	-0.353
GCGCGGC	0.927
GAUCCAU	-0.821
CUUCCUU	-0.756
AGUGCGC	0.407
UAUGUAG	0.374
GCCCAAC	-0.578
UGCGCCC	-0.448
UGAGAUG	0.803
CGUACAA	-0.448
UUGCAUC	-0.655
